# From PubChem BioAssay AID1347120 (National Center for Advancing Translational Sciences (NCATS), 2019)
# The whole screen tested about 390,000 compounds, of which about 930 (0.24%) were called active. Inconclusive means that the source gave no clear call. Such entries were picked first, then a sample of the others. Calls come from the whole dose curve; as a rule, active = well fitted activation curve with a large enough effect; inconclusive = small, poorly fitted or top-dose-only effect; inactive = no such curve, though single readings can be large or run the other way. Potencies beside an inconclusive call are fits to weak or partial responses and may not hold up.
# Test: qHTS for Suppressors of FUS Proteinopathy: Primary screen using FUS-linked yeast assay; note: nearly all actives have a fitted effect of over 55% in size;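 for growth rescue (activation): plate controls were DMSO vehicle for no effect and reference control for full effect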
# Settings: S. cerevisiae FUS-expressing, OD600, 24 h; Potency: growth rescue; growth rescue (activation): at 76.6 µM (top of the series)
# Method in brief: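 Steps: raffinose overnight preculture; dilution to OD 0.005 in 2% galactose minimal medium; compound addition (concentration series); 24hr at 30C, 99% humidity; absorbance read at 600 nm.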
# Potency is the fitted concentration of half-maximal effect; tags give direction and shape of the fitted curve.
Structure (SMILES),growth rescue (activation),Potency
O=C(CN1C(=O)CCSc2ccccc21)Nc1ccc(Cl)c(Cl)c1,inactive: 26.4%,–
COc1ccc(S(=O)(=O)N(CC(=O)N2CCc3ccccc3C2)c2ccc(C)cc2)cc1,–,"inconclusive: 15.8 µM [activator, partial curve, poor fit]"
CC(NC(=O)COC(=O)c1cn(-c2ccccc2)nc1-c1cccs1)c1ccccc1 (centres undefined),inactive: 17.8%,–
COc1ccc(N2C(=O)CS(=O)(=O)C23C(=O)N(Cc2ccccc2F)c2ccccc23)cc1Cl (centres undefined),inactive: 20.1%,–
CCOC(=O)c1ccc(NC(=O)COc2ccc(-n3cnnn3)cc2)cc1,–,"inconclusive: 17.8 µM [activator, partial curve, poor fit]"
COc1cc(-c2cc3nc(NCCN(C)C)ccn3n2)cc(OC)c1OC,inactive: 3.2%,–
O=C1CC(=C2c3ccccc3-c3ccccc32)C(=O)N1CCN1CCN(c2ccccc2)CC1,–,active: 39.8 µM
Cc1nc2ccc(NS(=O)(=O)c3c(C)c(C)cc(C)c3C)cc2s1,inactive: -3.72%,–
O=C(NCc1ccccc1F)C1CCCN(C(=O)N2CCOc3ccccc32)C1 (centres undefined),inactive: -7.26%,–
CCOc1ccc(-n2c(COc3ccc(C)cc3)nnc2SCC(=O)Nc2ccc(F)c(F)c2)cc1,inactive: 10.2%,–
CC(C)C[C@@H](CN)NC(=O)c1nc[nH]c1C(=O)N[C@@H](CC(C)C)C(=O)CNC[C@H](C)NC(=O)c1nc[nH]c1C(=O)N[C@@H](CC(=O)O)C(=O)O,inactive: 0%,–
C/C(=N\NC(=O)c1nnn(-c2nonc2N)c1-c1ccc(Cl)c(Cl)c1)c1ccncc1,–,"inconclusive: 44.7 µM [activator, partial curve, poor fit]"
CC1Cc2ccccc2N1C(=O)C1CCCN(S(=O)(=O)c2cccc3nsnc23)C1 (centres undefined),–,"inconclusive: 22.4 µM [activator, partial curve]"
O=C(Nc1nc(-c2ccccn2)cs1)c1ncc(Cl)c(Cl)c1Cl,inactive: 47.3%,–
Cc1sc(-n2c(C)cc(/C=N/n3cnnc3)c2C)c(C#N)c1C,–,"inconclusive: 14.1 µM [activator, partial curve]"
COc1ccc(S(=O)(=O)N2CCCCC2)cc1NC(=O)CN(Cc1ccco1)Cc1ccco1,–,"inconclusive: 15.8 µM [activator, partial curve, poor fit]"
Cc1ccccc1C(=O)Nc1ccc(S(=O)(=O)N2CCC(c3nc4ccccc4s3)CC2)cc1,inactive: -3.65%,–
CCOc1ccc(C2C(C(=O)Nc3ccccc3)=C(C)N=c3s/c(=C/c4cccc(OCC(=O)O)c4)c(=O)n32)cc1 (centres undefined),–,"inconclusive: 14.1 µM [activator, partial curve, poor fit]"
CCCCOc1ccc(C2=NC(c3cccs3)=Nc3ccc(OC)cc3N2)cc1,–,"inconclusive: 12.6 µM [activator, partial curve, poor fit]"
COc1ccc(OC)c(CNC(=O)c2c(C)oc3ncn(CC(C)C)c(=O)c23)c1,inactive: 19.5%,–
COc1ccc(NC(=O)c2c(NCc3cccc(F)c3)sc3c2CCC3)c(OC)c1,–,"inconclusive: 25.1 µM [activator, partial curve, poor fit]"
CSCCC(NS(=O)(=O)c1ccc2c(c1)oc(=O)n2C)C(=O)Nc1ccc(F)c(Cl)c1 (centres undefined),–,"inconclusive: 50.1 µM [activator, single point]"

Structure (SMILES),growth rescue (activation),Potency
COc1ccc(C(C(=O)NC2CCCCC2)N(C(=O)c2sc(C)nc2C)c2ccccc2C)cc1 (centres undefined),–,"inconclusive: 17.8 µM [activator, single point]"
O=C(CSc1nc2ccccc2nc1N1CCCCC1)N1CCN(S(=O)(=O)c2cc(Cl)ccc2Cl)CC1,–,"inconclusive: 17.8 µM [activator, partial curve, poor fit]"
COc1cccc2sc3ccc(C#CC4(O)CCCCC4)cc3c(=O)c12,–,"inconclusive: 28.2 µM [activator, partial curve]"
Cc1cccc(NC(=O)Cn2cc(S(=O)(=O)N3CCCC3)c(S(=O)(=O)N3CCCC3)c2)c1C,inactive: 21.9%,–
CC(C)CC1C(=O)N(Cc2cn(CCC3OCCCO3)nn2)CCS(=O)(=O)N1Cc1ccc(-c2ccccc2)cc1 (centres undefined),–,"inconclusive: 50.1 µM [activator, single point]"
Fc1ccc(Cn2cc(C(=S)N3CCOCC3)c3ccccc32)cc1,inactive: 33.3%,–
CCCC[C@@H]1C(=O)N2N=Cc3cc(C)c(C)cc3[C@H]2N2N=Cc3cc(C)c(C)cc3[C@@H]12,–,"inconclusive: 28.2 µM [activator, single point]"
Cc1ccc(CSc2nnc([C@@H](N)C(C)C)o2)cc1,inactive: -19.6%,–
CCc1nc2ccc(C(=O)NC3CCN(Cc4ccccc4)CC3)cn2c1N(C)Cc1cc2ccccc2s1,inactive: 2.69%,–
CCCn1c(CN(Cc2ccccc2)Cc2ccccc2)nc2c1c(=O)n(C)c(=O)n2C,inactive: 36.9%,–
CCCCCCCCN1C(=O)[C@@H](CC(=O)N2CCCCC2)C[C@@]2(C(=O)OC)C1=C[C@H](COCc1ccccc1)O[C@@H]2C,–,"inconclusive: 28.2 µM [activator, single point]"
Cc1ccc(NC(=S)NCc2ccc3c(c2)cc(C)n3C)c(C)c1,–,"inconclusive: 35.5 µM [activator, single point]"
COc1ccc(C(O)c2nc(-c3cc(F)cc(F)c3)cs2)cc1 (centres undefined),inactive: 8.16%,–
Cc1cc2c(cc3c(SCc4cccc(F)c4)nnc(C)n32)o1,–,"inconclusive: 28.2 µM [activator, single point]"
Cc1ccc(NC(=O)C2CCN(S(=O)(=O)c3ccc4c(c3)NC(=O)C(C)S4)CC2)c(C)c1 (centres undefined),–,"inconclusive: 50.1 µM [activator, single point]"
Cc1ccc(C2=CC(c3ccc(Cl)cc3)n3nc(-c4ccc(C)cc4)nc3N2)cc1 (centres undefined),–,"inconclusive: 31.6 µM [activator, single point]"
CC(C)c1ccc(C2c3c(oc4ccc(Cl)cc4c3=O)C(=O)N2CCCN2CCOCC2)cc1 (centres undefined),–,"inconclusive: 35.5 µM [activator, single point]"
CCCCCc1ccc(OCCCC[n+]2cccc(C)c2)c(CCCCC)c1,–,"inconclusive: 50.1 µM [activator, partial curve, poor fit]"
NS(=O)(=O)c1ccc(CCNC(=O)C2CCN(S(=O)(=O)c3cnc[nH]3)CC2)cc1,–,active: 25.1 µM
COc1ccc(NC(=O)CCc2nc3cccnc3n2-c2ccccc2)cc1Cl,inactive: 0.896%,–
O=C(Nc1ccc(F)cc1)C(c1cc2ccccc2o1)N1CCN(C(=O)c2ccco2)CC1 (centres undefined),–,active: 22.4 µM
CNC(=O)COc1ccc(C=O)cc1OC,inactive: 13.1%,–

Structure (SMILES),growth rescue (activation),Potency
CC(=O)C1=C(O)C(=O)N(c2ccc(Br)cn2)C1c1cccc([N+](=O)[O-])c1 (centres undefined),–,"inconclusive: 15.8 µM [activator, partial curve, poor fit]"
CCC1=C(OC(=O)N(CC)CC)N2C(=O)OC(=NCc3ccccc3)[C@]2(C)[C@H]2C1=CC[C@H]1C(=O)N(CC(=O)OC)C(=O)[C@H]12,–,"inconclusive: 28.2 µM [activator, partial curve]"
COc1cc2c(cc1OC)CN(C(=O)c1cc(C3CC3)nn1-c1ccccc1)CC2,–,"inconclusive: 10 µM [activator, partial curve, poor fit]"
Cc1ccc(Cl)cc1N1CCN(C(=O)c2ccc(CS(=O)(=O)c3ccc(Br)cc3)o2)CC1,–,active: 22.4 µM
O=C(OCc1cn([C@H]2C[C@H](c3ccccc3)N(CC3CCCCC3)C[C@@H]2O)nn1)c1ccccc1,–,"inconclusive: 15.8 µM [activator, partial curve, poor fit]"
Cc1ccc(OCC(=O)NNC(=O)CCc2ccccc2)c(Br)c1,inactive: 26.8%,–
Cc1ccc(CSc2nnc(CCCCCNC(=O)OC(C)(C)C)o2)cc1,–,"inconclusive: 20 µM [activator, single point]"
COC(=O)C1=C(C(=O)OC)[C@@]2([C@@H](Cc3ccc(C)cc3)Nc3ccccc3)C=C[C@@H]1O2,–,"inconclusive: 22.4 µM [activator, single point]"
Cc1ccc(NC(=O)CSC2=C(C#N)C(c3ccc4c(c3)OCO4)C3=C(CCCC3=O)N2)c(C)c1 (centres undefined),–,"inconclusive: 15.8 µM [activator, partial curve]"
CC(C)CNC(=O)COC(=O)c1cncc(Br)c1,–,active: 4.47 µM
Fc1cc(F)c2nc(Nc3nc4cc5c(cc4s3)OCO5)sc2c1,inactive: 4.8%,–
CCn1c2ccccc2c2cc(NC(=O)COC(=O)c3ccc(NC(=O)CC#N)cc3)ccc21,–,"inconclusive: 3.16 µM [activator, full curve]"
COc1ccc(CCNC(=O)c2cc3c(-c4ccc(OC)c(OC)c4)nn(C)c3s2)cc1OC,–,"inconclusive: 39.8 µM [activator, single point]"
O=C(Nc1nc(-c2cccs2)cs1)c1ccc(Cl)s1,inactive: -5.61%,–
COc1ccc(CC(=O)Nc2ccc3nc(Nc4cccc(Cl)c4)cc(C)c3c2)cc1,–,"inconclusive: 28.2 µM [activator, partial curve, poor fit]"
Cc1nc(CS(=O)(=O)c2ccccc2)cc(Sc2ccc(Cl)cc2Cl)n1,inactive: 17.5%,–
COCc1cccc(-c2csc(C(O)c3ccc(F)c(F)c3)n2)c1 (centres undefined),inactive: 11.8%,–
Cc1ccc(C(=O)N2CCN(c3ccc(NC(=S)NC(=O)c4cccs4)cc3)CC2)cc1,–,"inconclusive: 3.55 µM [activator, partial curve, poor fit]"
CCOC(=O)C1Sc2[nH]c(=O)sc2C(c2ccc(Cl)cc2)C1C(=O)OCC (centres undefined),–,"inconclusive: 31.6 µM [activator, partial curve, poor fit]"
C=Cc1ccc(Cn2c(C(=O)O)c(CNCCc3ccccc3)c3ccc(C)cc32)cc1,–,"inconclusive: 25.1 µM [activator, single point]"
